This is one part of the list.
System: T1, C. trachomatis L2/434/Bu expressing GFP (CTL2-GFP)
T1 construct: L2/434/Bu GFP intracellular growth in HeLa cells
Set-up: species or system HeLa; C. trachomatis total inclusion area by high-content imaging, normalised to DMSO
Conditions: total inclusion area; 28.5 h, 10 µM; inhibitor
Procedure, shortened: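 Host cell viability was gauged from Hoechst-stained nuclei counts, while chlamydial growth was taken from total inclusion area and inclusion number per well. Cells were fixed and imaged by high-content microscopy once bulk GFP and resorufin fluorescence had been measured.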

| Compound | % of control remaining |
| --- | --- |
| O=C(CN1C(=O)S/C(=C\c2ccc(Cl)cc2)C1=O)Nc1cc([N+](=O)[O-])ccc1O [CBK262396] | 104.721 |
| CC(=O)Nc1cccc(C(=O)O)c1Cl [CBK038814] | 77.4915 |
| O=C(NC[C@H]1C[C@@H]2CC[N@]1C[C@@H]2CN1CCN(c2ncccn2)CC1)Nc1ccsc1 [CBK289117] | 84.7277 |
| CC(NC(=O)N1CCCN(Cc2ccccn2)CC1)c1cnn(C)c1 (centres unmarked) [CBK307537] | 56.3169 |
| Cc1nc(S)nc(O)c1Cc1ccc(C(=O)O)o1 [CBK266284] | 89.2888 |
| COC(=O)[C@H]1CN(C(=O)C2CC(=O)N(C)C2)C[C@@H]1c1ccc(F)cc1 (some centres unmarked) [CBK283521] | 108.325 |
| COc1ccc(NC(=O)C(C)n2nc(C(=O)O)c3ccccc3c2=O)cc1 (centres unmarked) [CBK295322] | 67.9421 |
| Cc1ccccc1C(=O)Nc1cccc(-c2nnc(SCC(=O)c3ccc(Cl)cc3)n2C)c1 [CBK264053] | 108.347 |
| Cc1cc(CC(=O)NCCCn2ccnc2C(C)C)on1 [CBK307270] | 38.6189 |
| N#C/C(=C\c1ccc(-c2ccc(C(=O)O)cc2)o1)C(=O)NCc1ccco1 [CBK263322] | 100.809 |
| N#Cc1ccnc(N2CCN(CC(=O)NCC(F)(F)F)CC2)c1 [CBK305042] | 101.007 |
| CC1c2ccsc2CCN1C(=O)CC(NC(N)=O)c1cccc(Br)c1 (centres unmarked) [CBK305635] | 38.1657 |
| Nc1cccc(-c2nc(NC(=O)Cc3ccccc3)cnc2-c2ccc(F)cc2)c1 [CBK037550] | 119.268 |
| O=C1CSC2c3ccccc3C(=O)N2c2ccccc21 (centres unmarked) [CBK113670] | 98.3329 |
| O=C(Nc1ccc(C(F)(F)F)cc1)C1=C(O)CN(c2ccc(Cl)cc2)C1=O [CBK017603] | 93.5875 |
| COc1ccccc1-c1ccc(C(=O)N(C)CCN(C)C)c(N(C)C)n1 [CBK106075] | 87.9627 |
| O=C(NC1CCCOC1)c1cnn(-c2ccc(F)cc2)c1 (centres unmarked) [CBK283248] | 105.078 |
| CN(C)CCCNC(=O)C1CCN(c2nc3c(-c4ccccc4F)csc3c(=O)[nH]2)CC1 [CBK215438] | 90.2763 |
| CC(C)(CO)Cn1c(=O)[nH]c2ncc(-c3ccco3)nc21 [CBK064721] | 73.6092 |
| c1csc(-c2nccnc2OCC2COc3ccccc3O2)c1 (centres unmarked) [CBK107063] | 94.8218 |
| N#Cc1ccc(-c2cnc(N)c(-c3ccc(C(=O)N4CCOCC4)cc3)n2)cc1 [CBK064067T] | 80.4831 |
| NC(=O)C1(N2CCCCC2)CCN(C2CC(=O)N(Cc3ccc(N4CCCC4=O)cc3)C2=O)CC1 (centres unmarked) [CBK266598] | 127.812 |
| O=C(NC1CCC1)c1cn2cc(-c3cccs3)n(CC3CC3)c(=O)c2n1 [CBK306863] | 87.2204 |
| COc1ccccc1NC(CC(=O)c1ccccc1)C(=O)O (centres unmarked) [CBK287190] | 112.644 |
| CC(C)N1CCC[C@@H]2CN(C(=O)c3cccc(C(F)(F)F)c3)C[C@@H]21 [CBK285525] | 104.344 |
| CS(=O)(=O)Nc1ccc(C(=O)Nc2ccc(S(=O)(=O)N3CCOCC3)cc2)cc1 [CBK268379] | 84.0474 |

| Compound | % of control remaining |
| --- | --- |
| Cc1ccc(C2(C)CC(C)(C)N(C(=O)CSc3nnc[nH]3)c3ccccc32)cc1 (centres unmarked) [CBK073918] | 56.6205 |
| CC1CN(C(=O)Nc2ccccc2F)CC(C)O1 (centres unmarked) [CBK004990] | 63.23 |
| COc1ccc(Cc2c(C)nc3c(C(=O)NCC4COc5ccccc5O4)cnn3c2C)cc1 (centres unmarked) [CBK162179] | 105.083 |
| O=C1C(NCCO)=C(Nc2cccc(Cl)c2)C(=O)c2ccccc21 [CBK264323] | 35.6606 |
| Clc1ccc(COc2nccnc2OC2CCN(Cc3ccncc3)CC2)cc1Cl [CBK153792] | 65.072 |
| COC(=O)CC[C@H]1CNC(=O)[C@@H]2[C@@H](CCN2C)N1C [CBK289020] | 105.453 |
| O=C(COc1ccccc1[N+](=O)[O-])Nc1ccc(Br)cc1C(=O)O [CBK266008] | 137.03 |
| Cc1nc(C)c(CCC(=O)NC2CCCc3ccccc32)c(=O)[nH]1 (centres unmarked) [CBK295600] | 93.7575 |
| N#C/C(=C\c1ccc(N2CCOCC2)cc1)c1nc2ncc(Br)cc2[nH]1 [CBK266294] | 119.409 |
| Clc1cc(Cl)c2[nH]c3c(c2c1)CCc1nonc1-3 [CBK025929] | 88.2573 |
| CC(C)(C)OC(=O)N1CCN(c2nccnc2Cl)CC1 [CBK013554] | 87.4275 |
| Cc1nn(C)c(N2CCNCC2)c1NC(=O)COc1ccccc1 [CBK050249T] | 44.1655 |
| Cc1cc(CN2CCOCC2)oc1C(=O)O [CBK263239C] | 71.7373 |
| Cc1ccccc1S(=O)(=O)Nc1cc(CN2C[C@H](C)NC[C@H]2C)c2occc2c1 [CBK107210T] | 75.3897 |
| O=C(O)C1CCCCC1C(=O)NCCCN1CCCC1=O (centres unmarked) [CBK286914] | 100.523 |
| CC(=O)NCC1CC(c2ccc(OC(C)=O)c(Cl)n2)=NO1 (centres unmarked) [CBK010396] | 69.4141 |
| O=C(NCc1ccncc1)c1cc(-c2ccc(Cl)cc2)on1 [CBK116559] | 114.565 |
| Cn1cc(C2CCCCCN2S(=O)(=O)c2ccc3[nH]c(=O)[nH]c(=O)c3c2)cn1 (centres unmarked) [CBK286406] | 81.2406 |
| Cc1ccc(NC(=O)N(Cc2ccc(-c3ccccc3)cc2)CC(C)(C)CN)c(C)c1 [CBK002428C] | 49.4358 |
| CCc1nc2ccc(C(=O)NC3CCN(Cc4ccccc4)CC3)cn2c1N(C)CC [CBK145488] | 95.66 |
| CCOc1ccc(CC(=O)N2CCCc3c(cnn3C)C2)cc1 [CBK285325] | 102.891 |
| Cc1ccc(CN(C2CCN(C)CC2)S(=O)(=O)c2ccccc2F)cc1 [CBK160444T] | 47.0174 |
| CN1CCN(CCOC(=O)NCc2ccnc3ccccc23)CC1 [CBK200148] | 85.2533 |
| O=c1[nH]c(/C=C\c2cccc(OCCOc3ccccc3)c2)c([N+](=O)[O-])c(=O)[nH]1 [CBK266840] | 75.0511 |
| CC(=O)N1Cc2cc(C)ccc2OC2(CCCN(CC3CC3)C2)C1 (centres unmarked) [CBK285104] | 112.394 |
| O=S(=O)(c1ccc(-c2ccccc2)cc1)n1ccc2cc(N3CCN(Cc4ccccc4)CC3)ccc21 [CBK001388C] | 48.6785 |

| Compound | % of control remaining |
| --- | --- |
| CC(=O)NCCN1CC[C@H]2CN(C(=O)COc3ccccc3)CC[C@H]2CC1=O [CBK288783] | 108.099 |
| CC(C)(C)c1cc(-n2c(-c3cccnc3)nc3ccccc32)cc(C(C)(C)C)c1O [CBK262907] | 79.7266 |
| COc1ccc(CC(=O)N2CCC(c3cc4ncccc4[nH]3)CC2)cc1 [CBK283386] | 86.0334 |
| COc1cc(NC(=S)NCc2ccc(S(N)(=O)=O)cc2)cc(OC)c1 [CBK264935] | 105.879 |
| CN(C)CCN(Cc1ccccc1)Cc1ccc(C(F)(F)F)cc1 [CBK261927] | 85.8943 |
| Cc1nc(NS(=O)(=O)c2ccccc2)sc1NC(=O)Nn1cnnc1 [CBK266699] | 112.425 |
| CC(CN(C)C(=O)c1nc(=O)[nH][nH]1)Oc1ccc(Cl)c(Cl)c1 (centres unmarked) [CBK306471] | 55.4697 |
| COc1ccc(NC2=N[C@H]3[C@@H](O)[C@H](O)C[C@H](C(=O)N(C)Cc4ccccc4)[C@H]3S2)cc1 [CBK288950] | 94.4165 |
| CC(=O)Nc1ccc(NCc2nc(CC(C)C)no2)c(C(F)(F)F)c1 [CBK305799] | 64.1117 |
| O=C(C1CCN(S(=O)(=O)c2ccccc2)CC1)N1CCN(Cc2ccc3c(c2)OCO3)CC1 [CBK265713] | 142.416 |
| O=C(CN1CCn2ccnc2C1)N(Cc1ccccc1F)C1CC1 [CBK303995] | 74.1462 |
| COc1cccc(-n2c(C)nnc2C2(OC(C)=O)CCN(CCc3ccccc3)CC2)c1 [CBK016371] | 100.646 |
| Cc1ccc(C(=O)N/C(=C\c2cccc([N+](=O)[O-])c2)c2n[nH]c(=S)[nH]2)cc1 [CBK263114] | 102.306 |
| CCOC(=O)CCC(=O)n1c2ccccc2c2ccccc21 [CBK001170] | 98.3018 |
| O=C(CCN1CCCC12CCc1[nH]c3ccccc3c1C2)c1ccc(F)cc1 (centres unmarked) [CBK084593] | 64.1569 |
| CSc1ccc(-c2cnc(N)c3ncccc23)cc1 [CBK067584] | 70.8479 |
| OCCN1CC2(CCN(Cc3ccc4ccccc4c3)CC2)c2ccccc21 [CBK131529] | 101.026 |
| O=C(NC1CC1)C1(Cc2ccccc2-c2ccncc2)CCOCC1 [CBK284785] | 89.8759 |
| C[C@@H](Nc1cncc(-c2cccc(N)c2)n1)c1ccccc1 [CBK065273] | 108.613 |
| C[C@]12CN(CCc3ccccc3)C[C@H]1NC(=O)c1ccccc1C2=O [CBK284704] | 108.719 |
| O=C1CC(N2CCN(Cc3ccc4c(c3)OCO4)CC2)C(=O)N1c1ccc(Cl)cc1 (centres unmarked) [CBK074402] | 86.8634 |
| Nc1ncccc1OCCOc1cccnc1N [CBK022067] | 69.8701 |
| COc1ccc2oc(C(=O)N(C)CC(C)OC)c(C)c2c1 (centres unmarked) [CBK282037] | 94.4945 |
| O=C(CSCc1c(F)cccc1Cl)Nc1ccc(S(=O)(=O)N2CCCCCC2)cc1 [CBK268497] | 89.4065 |
| CCCCN(C)c1nccnc1-c1cccc(O)c1 [CBK037652] | 93.7539 |

Source: PMC12040169 (PLOS Biology, 2025)
